Among the data in the supplement of paper PMC8007513 are growth yield values, retold here.

The structures appear in SMILES notation. Where a name gives a salt, the structure may show the parent alone. ± gives the standard error. Out of some 1,300 compounds screened, about 75 (6%) showed an effect of 50% or more. The list shows a part of the results.

The assay has as its system Trichoderma virens ATCC 9645. Put plainly: growth yield (OD600) relative to untreated control; higher = less growth inhibition. As to conditions: compound concentration: 100 uM. A digest of the protocol: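 Plates were read for OD600 at 40 h and 72 h after Trichoderma virens ATCC 9645 spores (15,000 spores ml^−1 in potato dextrose broth) were grown at 30 °C with library compounds at 100 μM final, with or without a biocide at 200 ng ml^−1. Growth is stated relative to the control with neither agent, as the mean of duplicate screens.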

In the case of `CC(=O)c1ccc(S(=O)(=O)NC(=O)NC2CCCCC2)cc1` [Acetohexamide], the growth yield is 104 ± 4% (40 h) and 101 ± 3.5% (72 h).
As to `CCCCC[C@H](O)/C=C/[C@@H]1[C@@H](C/C=C\CCCC(=O)O)[C@@H](O)C[C@H]1O` [Dinoprost trometamol], the growth yield worked out at 101% (40 h) and 100% (72 h).
For `CCOC(=O)c1ccc(OC(=O)CCCCCNC(=N)N)cc1` [Gabexate mesilate], the growth yield was determined as 76.6 ± 4.5% (40 h) and 76 ± 3.7% (72 h).
Regarding `CCCN[C@H]1CCc2nc(N)sc2C1` [Pramipexole dihydrochloride], the growth yield is, setting by setting: (40 h) 103 ± 2.1%; (72 h) 99.84 ± 0.63%.
The molecule `Cc1cc(=O)oc2cc(O)ccc12` [Hymecromone] returned a growth yield (40 h) of 101 ± 0.32% and a growth yield (72 h) of 97.01 ± 0.94%.
The matching figures for `Cn1c(=O)c2nc[nH]c2n(C)c1=O` [Theophylline monohydrate]: 96.1 ± 1.4% and 95.4 ± 1.3%.
The matching figures for `C=C1c2cccc(O)c2C(=O)C2=C(O)[C@]3(O)C(=O)C(C(N)=O)=C(O)[C@@H](N(C)C)[C@@H]3[C@@H](O)[C@H]12` [Methacycline hydrochloride]: 84.7 ± 1.4% and 72.05 ± 0.1%.
For the molecule `c1ccc(C2CN3CCSC3=N2)cc1` (centres undefined) [Tetramisole hydrochloride], the growth yield reads like this: (40 h) 102 ± 2.7%; (72 h) 104 ± 1.6%.
As to `Cc1scc2c1N(C(=O)CN1CCN(C)CC1)c1ccccc1NC2=O` [Telenzepine dihydrochloride], the growth yield was 99.75 ± 0.32% (40 h) and 103 ± 1.1% (72 h).
Consider `Oc1ccc(OCc2ccccc2)cc1` [Monobenzone], for which the growth yield by setting is: (40 h) 48.6 ± 0.64%; (72 h) 53.3 ± 1.7%.
On to `C[C@H]1C[C@H]2[C@@H]3CCC4=CC(=O)C=C[C@]4(C)[C@@]3(F)[C@@H](O)C[C@]2(C)[C@@]1(O)C(=O)CO` [Betamethasone], for which the growth yield reads like this: (40 h) 99.75 ± 0.32%; (72 h) 103 ± 1.5%.
The molecule `COC(=O)Nc1nc2ccc(SC(C)C)cc2[nH]1` [Methiazole] came in with a growth yield (40 h) of 87% and a growth yield (72 h) of 112 ± 7.2%.
For `Cc1ccc(Cl)c(Nc2ccccc2C(=O)O)c1Cl` [Meclofenamic acid sodium salt monohydrate], the growth yield is, setting by setting: (40 h) 81.64 ± 0.64%; (72 h) 87.26 ± 0.21%.
Take `C=C1/C(=C\C=C2/CCC[C@]3(C)[C@@H]([C@H](C)/C=C/[C@@H](O)C4CC4)CC[C@@H]23)C[C@@H](O)C[C@@H]1O` [Calcipotriene]: the growth yield worked out at 110 ± 16% (40 h) and 105 ± 13% (72 h).
With `O=C(NCCO[N+](=O)[O-])c1cccnc1` [Nicorandil], the growth yield turned out to be 102.9 ± 0.32% (40 h) and 102 ± 4.2% (72 h).
In the case of `CCN1CCN(C(=O)N[C@@H](C(=O)N[C@@H]2C(=O)N3C(C(=O)O)=C(CSc4nnnn4C)CS[C@H]23)c2ccc(O)cc2)C(=O)C1=O` [Cefoperazone dihydrate], the growth yield by setting is: (40 h) 101 ± 0.95%; (72 h) 103 ± 2.2%.
Take `CN(C)CCOc1ccc(/C(=C(/CCCl)c2ccccc2)c2ccccc2)cc1` [Toremifene]: the growth yield is, setting by setting: (40 h) 3.81 ± 0.32%; (72 h) 2.73 ± 0.21%.
Consider `CC(C(=O)O)c1ccc(N2Cc3ccccc3C2=O)cc1` (centres undefined) [Indoprofen], for which the growth yield by setting is: (40 h) 88.3 ± 2.2%; (72 h) 82.5 ± 1.1%.
Take `CC1=Nc2ccc(Cl)cc2S(=O)(=O)N1` [Diazoxide]: the growth yield reads like this: (40 h) 107 ± 2.4%; (72 h) 105 ± 2.9%.
`CCn1nc(C(=O)O)c(=O)c2cc3c(cc21)OCO3` [Cinoxacin] yielded a growth yield (40 h) of 94.7 ± 7.3% and a growth yield (72 h) of 89.8 ± 3.1%.
For the molecule `Cc1cc(/C=C/c2ccc3cc(N(C)C)ccc3[n+]2C)c(C)n1-c1ccccc1` [Pyrvinium pamoate], the growth yield turned out to be 124 ± 20% (40 h) and 114 ± 12% (72 h).
`COCCOC(=O)C1=C(C)NC(C)=C(C(=O)OC/C=C/c2ccccc2)C1c1cccc([N+](=O)[O-])c1` (centres undefined) [Cilnidipine]: the growth yield by setting is: (40 h) 84.3 ± 13%; (72 h) 86.6 ± 8.2%.
Consider `CCCCNc1ccc(C(=O)OCCOCCOCCOCCOCCOCCOCCOCCOCCOC)cc1` [Benzonatate], for which the growth yield reads like this: (40 h) 92.1 ± 2.5%; (72 h) 89.1 ± 2.1%.
On to `O=C(O)/C=C/c1ccc(Cn2ccnc2)cc1` [Ozagrel hydrochloride], for which the growth yield is, setting by setting: (40 h) 110 ± 9.5%; (72 h) 106 ± 5.1%.
Regarding `CCCc1nc(C)c2c(=O)nc(-c3cc(S(=O)(=O)N4CCN(CC)CC4)ccc3OCC)[nH]n12` [Vardenafil], the growth yield was 112 ± 4.6% (40 h) and 105 ± 3.9% (72 h).
As to `O=C(O)COC(=O)Cc1ccccc1Nc1c(Cl)cccc1Cl` [Aceclofenac], the growth yield runs as follows: (40 h) 94.2 ± 2.1%; (72 h) 95.02 ± 0.42%.
For the molecule `Cc1cnc(NC(=O)C2=C(O)c3ccccc3S(=O)(=O)N2C)s1` [Meloxicam], the growth yield was 85.3 ± 4% (40 h) and 93.55 ± 0.21% (72 h).
As to `Cc1nnc(NS(=O)(=O)c2ccc(N)cc2)s1` [Sulfamethizole], the growth yield reads like this: (40 h) 100.4 ± 0.32%; (72 h) 99.74 ± 0.1%.
The matching figures for `CCN1CCC[C@H]1CNC(=O)c1c(OC)ccc(Br)c1OC` [Remoxipride Hydrochloride]: 101 ± 1.9% and 101.8 ± 0.94%.
The matching figures for `CCN1CCN(c2cc3c(cc2F)c(=O)c(C(=O)O)cn3C2CC2)CC1` [Enrofloxacin]: 97.5 ± 8.6% and 95.2 ± 7.3%.
The matching figures for `CO/N=C(\C(=O)N[C@@H]1C(=O)N2C(C(=O)O)=C(COC(N)=O)CS[C@H]12)c1ccco1` [Cefuroxime sodium salt]: 96.9 ± 2.9% and 89.9 ± 1.1%.
In the case of `O=C(NCC(O)CO)c1c(I)c(C(=O)NCC(O)CO)c(I)c(N(CCO)C(=O)CO)c1I` (centres undefined) [Ioversol], the growth yield is, setting by setting: (40 h) 101 ± 5.4%; (72 h) 98.1 ± 2.8%.
For the molecule `Nc1ccc(S(=O)(=O)Nc2ccnn2-c2ccccc2)cc1` [Sulfaphenazole], the growth yield (40 h) was 94.19 ± 0.79% and the growth yield (72 h) was determined as 92.29 ± 0.84%.
As to `CC1Cc2ccccc2N1NC(=O)c1ccc(Cl)c(S(N)(=O)=O)c1` (centres undefined) [Indapamide], the growth yield is, setting by setting: (40 h) 107 ± 1.8%; (72 h) 105.7 ± 0.42%.
Turning to `Cc1cc(CC(=O)O)n(C)c1C(=O)c1ccc(Cl)cc1` [Zomepirac sodium salt], the growth yield is, setting by setting: (40 h) 93.7 ± 5.7%; (72 h) 88 ± 3.9%.
The matching figures for `O=C1CC2(CCCC2)CC(=O)N1CCCCN1CCN(c2ncccn2)CC1` [Buspirone hydrochloride]: 104.4 ± 0.16% and 102.2 ± 0.52%.
In the case of `CC[C@H]1OC(=O)[C@H](C)[C@@H](O[C@H]2C[C@@](C)(OC)[C@@H](O)[C@H](C)O2)[C@H](C)[C@@H](O[C@@H]2O[C@H](C)C[C@H](N(C)C)[C@H]2O)[C@](C)(O)C[C@@H](C)[C@@H]2N[C@@H](COCCOC)O[C@H]([C@H]2C)[C@]1(C)O` [Dirithromycin], the growth yield (40 h) was 99.1 ± 2.2% and the growth yield (72 h) was 99 ± 3.4%.
In turn, `C[C@H](O)C(=O)Nc1c(I)c(C(=O)NC(CO)CO)c(I)c(C(=O)NC(CO)CO)c1I` [Iopamidol] gave a growth yield (40 h) of 100 ± 5.1% and a growth yield (72 h) of 97 ± 2.4%.
Turning to `CC(C)CC(=O)N[C@H](C(=O)N[C@H](C(=O)N[C@@H](CC(C)C)[C@@H](O)CC(=O)N[C@@H](C)C(=O)N[C@@H](CC(C)C)[C@@H](O)CC(=O)O)C(C)C)C(C)C` [Pepstatin A], the growth yield turned out to be 106 ± 5.4% (40 h) and 102 ± 7.8% (72 h).
On the same counts, the results for `Nc1nc2n[nH]nc2c(=O)[nH]1` [Azaguanine-8] are 3.49 ± 0.95% and 2.62 ± 0.1%.
`CN(C)c1nc(N(C)C)nc(N(C)C)n1` [Altretamine]: the growth yield (40 h) was determined as 97.37 ± 0.79% and the growth yield (72 h) came to 95.02 ± 0.63%.
Molecule `CC(C)NCC(O)c1ccc2ccccc2c1` (centres undefined) [Pronethalol hydrochloride] yielded a growth yield (40 h) of 98.6 ± 2.1% and a growth yield (72 h) of 99.3 ± 2%.
